In test [1] the target is T1, human RON (recepteur d'origine Nantaise, MST1R), full length on cells (human, UniProt Q04912 25-1400).
T1 construct: Over-expressed on transfected NIH/3T3 cells, or native on BxPC-3 and MDA-MB-453 cells; also called native human RON
The experiment in a line: flow cytometry, MDA-MB-453 cells, various concentrations; binding activity comparable to murine RON-e02. As to the method: (§1) Human pancreatic adenocarcinoma BxPC-3 cells (ATCC) were dissociated with trypsin and human breast metastatic carcinoma MDA-MB-453 cells (ATCC) were harvested manually with a rubber cell scraper. Cells were stained at 3×10⁵ cells/sample on ice with purified molecules diluted in Staining Buffer. SMIPs and Interceptors were detected with Alexa Fluor 488-conjugated goat anti-human IgG (Invitrogen). Samples were analyzed on a BD FACSCalibur flow cytometer fitted with an HTS using PlateManager and CellQuest Pro software.
(§2) Additionally, RON-e (FIG. 7a) and RON-f (FIG. 7B) humanized SMIPs bind native human RON on the surface of MDA-MB-453 cells. Various concentrations of humanized RON-e SMIP constructs RON-e07h68, RON-e08h78, RON-e09h69, RON-e10h79, RON-e11h60, RON-e12h70 and RON-f SMIP SMIP constructs RON-f07h24 and RON-f08h25 were incubated with MDA-MB_{—}453 cells and compared with murine RON-e02 and RON-f02 controls, respectively.
Background: In flow cytometry, cells or beads pass a laser one at a time.

The target of a further test is T2, RON Sema-PSI-AFH protein (human, UniProt Q04912 25-568).
T2 construct: Produced in CHOK1SV cells; also called soluble RON Sema-PSI-AFH; not shown: c-terminal tag including avidin, 3xFLAG and 6x histidine tags
T2 chain: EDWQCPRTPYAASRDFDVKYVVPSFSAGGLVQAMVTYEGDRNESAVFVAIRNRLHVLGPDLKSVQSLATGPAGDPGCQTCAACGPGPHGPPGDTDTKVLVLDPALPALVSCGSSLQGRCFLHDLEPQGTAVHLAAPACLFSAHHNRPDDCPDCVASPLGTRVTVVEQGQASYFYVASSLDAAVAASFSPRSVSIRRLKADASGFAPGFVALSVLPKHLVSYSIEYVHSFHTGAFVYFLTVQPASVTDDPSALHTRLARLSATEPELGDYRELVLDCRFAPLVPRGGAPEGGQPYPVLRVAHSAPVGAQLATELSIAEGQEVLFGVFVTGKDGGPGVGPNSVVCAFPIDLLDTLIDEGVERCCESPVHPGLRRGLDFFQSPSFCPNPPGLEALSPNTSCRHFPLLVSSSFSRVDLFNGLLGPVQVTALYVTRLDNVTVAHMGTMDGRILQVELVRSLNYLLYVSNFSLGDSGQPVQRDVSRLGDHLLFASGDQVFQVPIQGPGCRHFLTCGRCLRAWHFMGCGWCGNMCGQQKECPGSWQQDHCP
As to the kind of experiment: SPR (Biacore T100); SMIP captured by immobilized anti-human Fc, soluble RON Sema-PSI-AFH flowed over. The method, then:
The binding kinetics of RON-f murine antibody, SMIP and Interceptor to soluble RON Sema-PSI-AFH were determined using a Biacore T100 (GE Healthcare, Piscataway, N.J.). Anti-RON murine antibody was captured using immobilized anti-mouse Fc polyclonal antibody while the SMIP and Interceptor were captured by anti-human Fc monoclonal antibody. The capture antibodies, both from GE Healthcare, were covalently conjugated to a carboxylmethyl dextran surface (CM4) via amines using N-ethyl-N′-(3-dimethylaminopropyl)-carbodiimide hydrochloride and N-hydroxysuccinimide. The unoccupied sites of the activated surface were blocked by ethanolamine. […] During each cycle, a single concentration of soluble RON Sema-PSI-AFH was injected and then allowed to dissociate. At the end of each cycle, the surface was regenerated gently using 3M MgCl₂ which dissociates protein bound to the capture antibodies. Signal associated with binding to the reference cell was used to subtract for bulk refractive changes and blank (buffer-only) injections were used to correct for drift and system noise.
Kinetic parameters and affinities were determined using BIAevaluation software. The kₐ (M⁻¹s⁻¹) and kd (s⁻¹) rates of the interaction were used to calculate the affinity constant, KD (M), of the antibody/receptor interaction. The KD is defined as the ratio of the kd and kₐ constants (kd/kₐ). The RON-f01 murine antibody was tested in a single experiment while the RON-f02 SMIP and RON-f03 Interceptor molecules were each tested in three independent experiments. RON-f molecules were captured on a sensor chip with immobilized anti-Fc while soluble RON Sema-PSI-AFH protein was flowed over the surface at varying concentrations.
For orientation: Surface plasmon resonance follows binding to a sensor surface in real time, without labels.

In test [2] the target is T1, human RON (recepteur d'origine …). As to the kind of experiment: flow cytometry, MDA-MB-453 (RON+) cells, 100 nM to 0.1 nM. The method, then:
The cells were washed three times and then incubated with goat anti-human IgG-FITC (1:200 dilution) for another 30 minutes at 4° C. The cells were then washed again three times, fixed in 1% paraformaldehyde and read on a FACS-Calibur instrument.

The target is the same in test [3]. The experiment in a line: flow cytometry, MDA-MB-453 cells, various concentrations; binding activity comparable to murine RON-f02. The method, then:
as §1, §2

The record followed here is US20130089554A1 (EMERGENT PRODUCT DEVELOPMENT SEATTLE, published 2013).

As a reminder, the Kd is the free concentration of one partner at which half of the binding sites on the other are occupied at equilibrium, for simple one-to-one binding. In general, koff refers to the first-order rate constant of dissociation. A lower koff goes with slow dissociation. One may read the kon as the second-order rate constant of association. Low values mean slower complex formation, high ones faster complex formation.

B1: RON-e07h68 humanized 11H09 SMIP (e01h6 VL/e01h8 VH) (Fc fusion)
chain: AIQLTQSPSSLSASVGDRVTITCRASQDIGSSLSWLQQKPGKAPKRLIYSTSSLDSGVPSRFSGSGSGTDFTLTISSLQPEDFATYYCLQYASSPWTFGQGTKVEIKGGGGSGGGGSGGGGSGGGGSQVQLVQSGAEVKKPGASVKVSCKASGYTFTSYWIHWVRQAPGQGLEWIGYIYPTTGYTESNQKFKDRVTMTRDTSISTAYMELSRLRSDDTAVYYCFLLRPWYFDVWGQGTTVTVSSS[human IgG1 Fc with changes not written out]
notes: Form without leader (97 has the leader, 99 lacks the terminal lysine)
In the case of B1, the binding result in test [1] is recorded as “binds”.

B2: RON-e10h79 humanized 11H09 SMIP (e01h7 VL/e01h9 VH) (Fc fusion)
chain: DIQMTQSPSSLSASVGDRVTITCRASQDIGSSLSWLQQKPGKAPKRLIYSTSSLDSGVPSRFSGSGSGTDYTLTISSLQPEDFATYYCLQYASSPWTFGQGTKVEIKGGGGSGGGGSGGGGSGGGGSQVQLVQSGAEVKKPGASVKVSCKASGYTFTSYWIHWVRQATGQGLEWIGYIYPTTGYTESNQKFKDRVTMTRNTSISTAYMELSSLRSEDTAVYYCFLLRPWYFDVWGQGTTVTVSSS[human IgG1 Fc with changes not written out]
notes: Form without leader
Turning to B2, the binding result in test [1] is listed as “binds”.

B3: RON-e11h60 humanized 11H09 SMIP (e01h6 VL/e01h0 VH) (Fc fusion)
chain: AIQLTQSPSSLSASVGDRVTITCRASQDIGSSLSWLQQKPGKAPKRLIYSTSSLDSGVPSRFSGSGSGTDFTLTISSLQPEDFATYYCLQYASSPWTFGQGTKVEIKGGGGSGGGGSGGGGSGGGGSQVQLVQSGAEVKKPGASVKVSCKASGYTFTSYWIHWVRQAPGQGLEWIGYIYPTTGYTESNQKFKDRVTMTRDTSTSTVYMELSSLRSEDTAVYYCFLLRPWYFDVWGQGTTVTVSSS[human IgG1 Fc with changes not written out]
notes: Form without leader
As to B3, the binding result in test [1] is recorded as “binds”.

B4: RON-e12h70 humanized 11H09 SMIP (e01h7 VL/e01h0 VH) (Fc fusion)
chain: DIQMTQSPSSLSASVGDRVTITCRASQDIGSSLSWLQQKPGKAPKRLIYSTSSLDSGVPSRFSGSGSGTDYTLTISSLQPEDFATYYCLQYASSPWTFGQGTKVEIKGGGGSGGGGSGGGGSGGGGSQVQLVQSGAEVKKPGASVKVSCKASGYTFTSYWIHWVRQAPGQGLEWIGYIYPTTGYTESNQKFKDRVTMTRDTSTSTVYMELSSLRSEDTAVYYCFLLRPWYFDVWGQGTTVTVSSS[human IgG1 Fc with changes not written out]
notes: Form without leader
B4: the binding result in test [1] is “binds”.

B5: RON-e08h78 humanized 11H09 SMIP (e01h7 VL/e01h8 VH) (Fc fusion)
chain: DIQMTQSPSSLSASVGDRVTITCRASQDIGSSLSWLQQKPGKAPKRLIYSTSSLDSGVPSRFSGSGSGTDYTLTISSLQPEDFATYYCLQYASSPWTFGQGTKVEIKGGGGSGGGGSGGGGSGGGGSQVQLVQSGAEVKKPGASVKVSCKASGYTFTSYWIHWVRQAPGQGLEWIGYIYPTTGYTESNQKFKDRVTMTRDTSISTAYMELSRLRSDDTAVYYCFLLRPWYFDVWGQGTTVTVSSS[human IgG1 Fc with changes not written out]
notes: Form without leader
In the case of B5, the binding result in test [1] is “binds”.

B6: RON-e09h69 humanized 11H09 SMIP (e01h6 VL/e01h9 VH) (Fc fusion)
chain: AIQLTQSPSSLSASVGDRVTITCRASQDIGSSLSWLQQKPGKAPKRLIYSTSSLDSGVPSRFSGSGSGTDFTLTISSLQPEDFATYYCLQYASSPWTFGQGTKVEIKGGGGSGGGGSGGGGSGGGGSQVQLVQSGAEVKKPGASVKVSCKASGYTFTSYWIHWVRQATGQGLEWIGYIYPTTGYTESNQKFKDRVTMTRNTSISTAYMELSSLRSEDTAVYYCFLLRPWYFDVWGQGTTVTVSSS[human IgG1 Fc with changes not written out]
notes: Form without leader
As to B6, the binding result in test [1] was “binds”.

B7: RON-f02 4C04 murine SMIP (Fc fusion)
chain: DIQMTQSPASQSASLGESVTITCLASQTIGTWLAWYQQKPGKSPQLLIYAATSLADGVPSRFSASGSGTKFSFKIDSLQSEDFVSYYCQQLYNTPWTFGGGTKLEIKGGGGSGGGGSGGGGSQIQLQQSGPELVKPGTSVKISCKASDYTLTDFYMNWVRQKPGQGLEWIGRIYPGTDKTRYNEKFRDKAILTVDTSSSTAYMQLSSLTSEDTAVYFCARSAYYGNYVAMDYWGQGTSVTVSSS[human IgG1 Fc with changes not written out]
notes: also called RON-f02 SMIP
In the test with RON Sema-PSI-AFH protein, B7 returned an equilibrium dissociation constant (Kd) of 0.115 nM, a koff of 0.0001 s⁻¹ and a kon of 866000 M⁻¹ s⁻¹.

B8: SCORPION protein S0266 (anti-RON x anti-CD3) (bispecific antibody)
chain: DIQMTQSPASQSASLGESVTITCLASQTIGTWLAWYQQKPGKSPQLLIYAATSLADGVPSRFSASGSGTKFSFKIDSLQSEDFVSYYCQQLYNTPWTFGGGTKLEIKGGGGSGGGGSGGGGSQIQLQQSGPELVKPGTSVKISCKASDYTLTDFYMNWVRQKPGQGLEWIGRIYPGTDKTRYNEKFRDKAILTVDTSSSTAYMQLSSLTSEDTAVYFCARSAYYGNYVAMDYWGQGTSVTVSSS[human IgG1 Fc with changes not written out]RHNNSSLNTGTQMAGHSPNSEVQLQQSGPELVKPGASMKISCKASGYSFTGYIVNWLKQSHGKNLEWIGLINPYKGLTTYNQKFKGKATLTVDKSSSTAYMELLSLTSEDSAVYYCARSGYYGDSDWYFDVWGAGTTVTVSSGGGGSGGGGSGGGGSAQDIQMTQTTSSLSASLGDRVTISCRASQDIRNYLNWYQQKPDGTVKLLIYYTSRLHSGVPSRFSGSGSGTDYSLTIANLQPEDIATYFCQQGNTLPWTFGGGTKLVTKR
Take B8: the binding result in test [2] was “binds”.

B9: RON-f07h24 humanized 4C04 SMIP (f01h2 VL/f01h4 VH) (Fc fusion)
chain: DIQMTQSPSSLSASVGDRVTITCLASQTIGTWLAWYQQKPGKAPKLLIYAATSLADGVPSRFSGSGSGTDFTLTISSLQPEDFATYYCQQLYNTPWTFGGGTKVEIKGGGGSGGGGSGGGGSGGGGSEVQLVQSGAEVKKPGATVKISCKVSDYTLTDFYMNWVQQAPGKGLEWIGRIYPGTDKTRYNEKFRDRVTITADTSTDTAYMELSSLRSEDTAVYYCARSAYYGNYVAMDYWGQGTTVTVSSS[human IgG1 Fc with changes not written out]
notes: Form without leader
On to B9, for which, in test [3], the binding result was “binds”.

B10: RON-f08h25 humanized 4C04 SMIP (f01h2 VL/f01H5 VH) (Fc fusion)
chain: DIQMTQSPSSLSASVGDRVTITCLASQTIGTWLAWYQQKPGKAPKLLIYAATSLADGVPSRFSGSGSGTDFTLTISSLQPEDFATYYCQQLYNTPWTFGGGTKVEIKGGGGSGGGGSGGGGSGGGGSQVQLVQSGAEVKKPGSSVKVSCKASDYTLTDFYMNWVRQAPGQGLEWIGRIYPGTDKTRYNEKFRDRVTITADKSTSTAYMELSSLRSEDTAVYYCARSAYYGNYVAMDYWGQGTTVTVSSS[human IgG1 Fc with changes not written out]
notes: Form without leader
Take B10: the binding result in test [3] is recorded as “binds”.
